Test results as given in paper PMC4336329 (PLoS ONE, 2015).
Out of some 310,000 compounds screened, about 14,000 (4.5%) showed an effect of 50% or more. The effect is printed as a negative number. Some of the results follow.

Target: human ether-à-go-go-related gene (hERG) potassium channel (human, UniProt Q12809)
Assay: primary screen, population patch clamp on CHO cells stably expressing hERG
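Note: peak tail current of the secondary pulse compared with the same well before compound.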

Chain of human ether-à-go-go-related gene (hERG) potassium channel (Q12809 whole entry, looked up): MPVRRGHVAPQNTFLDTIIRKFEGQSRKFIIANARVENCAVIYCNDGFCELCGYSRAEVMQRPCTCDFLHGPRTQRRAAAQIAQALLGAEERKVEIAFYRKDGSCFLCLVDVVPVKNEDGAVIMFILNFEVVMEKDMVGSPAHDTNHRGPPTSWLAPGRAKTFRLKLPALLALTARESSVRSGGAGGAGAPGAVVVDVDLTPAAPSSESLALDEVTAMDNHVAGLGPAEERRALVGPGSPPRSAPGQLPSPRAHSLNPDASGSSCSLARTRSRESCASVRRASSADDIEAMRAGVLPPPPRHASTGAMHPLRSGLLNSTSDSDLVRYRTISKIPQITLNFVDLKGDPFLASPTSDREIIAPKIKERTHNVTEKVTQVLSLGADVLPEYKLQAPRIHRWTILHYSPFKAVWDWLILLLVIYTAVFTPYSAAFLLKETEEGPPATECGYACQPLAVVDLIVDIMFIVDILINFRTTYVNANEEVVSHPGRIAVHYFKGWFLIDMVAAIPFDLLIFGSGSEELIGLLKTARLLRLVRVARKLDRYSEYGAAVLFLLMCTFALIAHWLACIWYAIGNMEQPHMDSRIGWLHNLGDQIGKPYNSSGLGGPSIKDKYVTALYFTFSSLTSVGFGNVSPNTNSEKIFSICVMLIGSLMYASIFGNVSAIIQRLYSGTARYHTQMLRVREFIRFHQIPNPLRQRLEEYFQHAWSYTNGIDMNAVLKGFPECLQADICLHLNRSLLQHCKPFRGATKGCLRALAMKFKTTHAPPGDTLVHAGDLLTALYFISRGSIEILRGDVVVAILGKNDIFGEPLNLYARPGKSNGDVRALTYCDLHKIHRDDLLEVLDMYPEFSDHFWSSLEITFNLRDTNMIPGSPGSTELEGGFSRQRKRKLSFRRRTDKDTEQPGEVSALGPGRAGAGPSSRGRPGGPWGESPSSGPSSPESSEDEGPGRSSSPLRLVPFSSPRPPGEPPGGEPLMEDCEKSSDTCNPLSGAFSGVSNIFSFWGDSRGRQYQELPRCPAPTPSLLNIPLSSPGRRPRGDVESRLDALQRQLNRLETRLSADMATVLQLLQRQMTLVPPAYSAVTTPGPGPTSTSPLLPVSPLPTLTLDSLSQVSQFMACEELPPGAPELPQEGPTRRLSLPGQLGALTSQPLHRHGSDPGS

Row | Structure (SMILES) | hERG current change (%, negative = inhibition) at 10uM
1 | O=C(O)CCN1c2ccccc2Sc2ccccc21 | 16.5%
2 | CC(C)CC(COCc1ccc(C(F)(F)F)cc1)N1CCN(C(=O)c2ccc(C(F)(F)F)cc2)CCC1=O (stereo not drawn) | -16.7%
3 | O=C(/C=C/c1ccco1)Nc1ccc2c(c1)OCO2 | 6.67%
4 | Cn1c(=O)oc2cc(S(=O)(=O)N3CCN(c4ccccn4)CC3)ccc21 | 8.32%
5 | CC(=O)c1ccc(NC(=O)c2ccc3nc(C)sc3c2)cc1 | 16.5%
6 | CCOC(=O)N1CCN(C(=O)COC(=O)CN(C)S(=O)(=O)c2ccc(NC(C)=O)cc2)CC1 | 14.2%
7 | O=C(CCn1[nH]c(=O)c2ccccc2c1=O)OC1CCCCC1 | 9.92%
8 | Cc1nc2c(C(=O)NCc3ccc4c(c3)OCO4)c[nH]n2c(=O)c1Cc1ccccc1F | -3.56%
9 | O=C(NCC1CCCO1)c1ccc(Br)o1 (stereo not drawn) | 22.4%
10 | O=C(Nc1cccs1)Nc1c(F)c(F)cc(F)c1F | -1.92%
11 | O=C(OCC(=O)N1CCOCC1)c1ccc(Cl)nc1 | 15.3%
12 | CCOc1ccc(Cl)cc1/C=N/NC(=O)CNC(=O)c1ccccc1 | 3.26%
13 | COCCCNC(=O)c1cc(C(=O)c2ccccc2Br)c[nH]1 | 15.1%
14 | COc1ccc(CC(=O)Nc2ccc(C(=O)NCC(C)C)cc2)cc1 | -0.731%
15 | O=C(COc1ccccc1Br)NCCC1=CCCCC1 | -18.1%
16 | CCC(CC)c1nnc(NC(=O)CCCN2C(=O)c3ccccc3C2=O)s1 | -18.3%
17 | O=C(/C=C/c1ccc(OC2CSC2)cc1)c1ccccc1 | 10.1%
18 | COc1ccc(C)cc1NC(=O)CCNC(=O)Cn1ccc2ccccc2c1=O | 28.3%
19 | Cc1nc(NC(=O)c2ccco2)sc1-c1csc(Nc2ccc(Cl)cc2Cl)n1 | 1.15%
20 | Cc1cc(N2CCOCC2)nc(-c2ccc([N+](=O)[O-])cc2)n1 | -14.1%
21 | Cn1cc(/C=C(\C#N)C(=O)Nc2cccc([N+](=O)[O-])c2)c2ccccc21 | 28.4%
22 | CC(NC(=O)CCc1nnc(-c2ccc(-c3ccccc3)cc2)o1)c1nccs1 (stereo not drawn) | -12.2%

Row | Structure (SMILES) | hERG current change (%, negative = inhibition) at 10uM
23 | COc1ccc(Nc2nc(-c3ccc(OC)cc3)c(CCC(=O)O)s2)cc1 | 2.3%
24 | O=C(c1cc2cc(F)ccc2[nH]1)N1CCN(C(=O)c2ccco2)CC1 | -49.5%
25 | CCOc1ccccc1C(=S)NC1CCCCC1 | 13%
26 | COCCNC(=O)CN1C(=O)C(C)N=C(c2ccccc2)c2cc(Cl)ccc21 (stereo not drawn) | -1.21%
27 | CCOC(=O)Nc1ccc2c(c1)N(C(=O)N(CC)CC)c1ccccc1CC2 | -15.5%
28 | O=C(CCN1C(=O)c2ccccc2C1=O)Nc1cccc(F)c1 | -13.4%
29 | Cc1ccccc1N(C(=O)CS(=O)CC(=O)Nc1ccc(F)cc1)C(C)C(=O)NC(C)(C)C (stereo not drawn) | 7.27%
30 | COc1ccccc1N(C)S(=O)(=O)c1ccc(Cl)c(C(=O)Nc2cccc(C)n2)c1 | -9.97%
31 | COc1cccc(-c2c(C(=O)N/N=C(\C)c3cccnc3)nnn2-c2nonc2N)c1 | 17.5%
32 | CC(Oc1ccc2ccc(=O)oc2c1)C(=O)NCCCn1ccnc1 (stereo not drawn) | 28.5%
33 | Cc1c(Cl)c([N+](=O)[O-])nn1CCCC(=O)Nc1sc2c(c1C#N)CCC2 | -16.3%
34 | COc1cc(SC)ccc1C(=O)Nc1ccc(C)cc1 | 8.29%
35 | C=CC[N+]1(CC#Cc2ccccc2)CCCC1.[Br-] | 18.4%
36 | CC(=O)NS(=O)(=O)c1ccc(N=NN2CCCCCC2)cc1 | 11.4%
37 | COc1ccc(NC(=O)C2CCN(S(=O)(=O)c3ccc4[nH]c(=O)oc4c3)CC2)c(OC)c1 | 3.47%
38 | CCCCNC(=O)c1cn(C)c2ccc(S(=O)(=O)N3CC(C)CC(C)C3)cc2c1=O (stereo not drawn) | 1.55%
39 | Cc1cc(NC(=O)CSc2nnnn2-c2ccc(C)c(C)c2)no1 | 16.2%
40 | CCCCn1c(N)c(N(CCOC)C(=O)c2cc(-c3ccco3)nc3ccccc23)c(=O)[nH]c1=O | 2.93%
41 | O=C(Oc1ccc2c(=O)c(Oc3ccc4ccccc4c3)coc2c1)c1cncc(Br)c1 | 8.89%
42 | O=C(COC(=O)CNC(=O)c1sc2ccccc2c1Cl)NC1CCS(=O)(=O)C1 (stereo not drawn) | -13.7%
43 | CCC(C)(C)NC(=O)CCCSc1nc2ccccc2[nH]1 | -4.51%
44 | Clc1ccccc1OCCCn1ccnc1 | 11.4%

Row | Structure (SMILES) | hERG current change (%, negative = inhibition) at 10uM
45 | CC(Sc1nc2sc3c(c2c(=O)n1-c1ccccc1)CCCC3)C(=O)O (stereo not drawn) | 7.27%
46 | NC(=O)c1ccc(-c2noc(-c3ccccc3F)n2)cc1 | 11.5%
47 | O=C(CCSc1ccccc1)NC1CCCCCC1 | -4.31%
48 | CCOc1ccc(Cn2nnc(C(=O)NCc3ccccc3)c2N)cc1 | 11.6%
49 | CCn1c(C)c(C)c2cc(C(=O)N3CCN(c4cccc(C)c4C)CC3)ccc21 | 7.77%
50 | CC1CCCCC1NC(=O)COC(=O)c1ccc2c(c1)OCCO2 (stereo not drawn) | 1.98%
51 | COc1ccccc1NC(=O)CN1CCN(c2ccccn2)CC1 | -27%
52 | Cc1ccc(OCC(=O)Nc2ccc3c(c2)nc(CCN2CCOCC2)n3C)cc1 | -51.3%
53 | CCOc1ccc(S(=O)(=O)NCCC(=O)N2CCN(c3ccc(OC)cc3)CC2)cc1 | -19.1%
54 | Cc1ccc(Nc2nc(-c3ccncc3)nc3ccccc23)cc1 | 14.3%
55 | CS(=O)(=O)c1ccc2nc(NC(=O)Nc3ccc(Cl)c(Cl)c3)sc2c1 | 6.88%
56 | Cc1ccccc1Nc1nc(N)nc(CN2CCN(Cc3ccc4c(c3)OCO4)CC2)n1 | -68%
57 | CC(C)(C)C1CCC(OCC(O)CN2CCCC2)CC1.Cl (stereo not drawn) | -30.8%
58 | COc1ccc(NC(=O)c2cn(-c3ccccc3)nc2-c2cc3ccccc3o2)cc1 | 6.67%
59 | CCN(CC)C(=O)CN1C(=O)NC2(CCc3ccccc3C2)C1=O (stereo not drawn) | 25.7%
60 | COc1ccccc1CCC(=O)N(Cc1ccccc1)c1c(N)n(Cc2ccccc2)c(=O)[nH]c1=O | -3.88%
61 | O=S(=O)(c1ccccc1)N1CCN(Cc2ccccc2)CC1 | 19.3%
62 | CC1CC(O)(CC(O)(c2ccccc2)c2ccccc2)C(C)CN1C (stereo not drawn) | -12.2%
63 | C/C(=N/NS(=O)(=O)c1ccc(Cl)cc1)c1cccc(NC(=O)c2ccc(Cl)cc2Cl)c1 | 5.75%
64 | COc1cc2c(cc1OC)C(C)N(C(=O)c1cc3n(n1)C(C(F)(F)F)CC(c1ccco1)N3)CC2 (stereo not drawn) | -1.64%
65 | CCOc1ncccc1C(=O)OCC(=O)N1CC(=O)Nc2ccccc21 | 8.81%
66 | COc1ccc(CN2CC(C(=O)N3CC(C)CC(C)C3)CC2=O)cc1 (stereo not drawn) | -16.4%

Row | Structure (SMILES) | hERG current change (%, negative = inhibition) at 10uM
67 | COc1cc(-c2nc3n(n2)C(c2ccc(F)cc2)C2=C(CCCC2=O)N3)cc(OC)c1OC (stereo not drawn) | 0.0473%
68 | Cc1cccc(NC(=O)CN(C)S(=O)(=O)c2cccc3cccnc23)c1 | -19.2%
69 | CCOCCCNC(=O)CN(Cc1ccc(Cl)cc1)S(C)(=O)=O | 3.99%
70 | CCc1cc(C(c2ccncc2)N2CCN(C)CC2)c(NC(=O)c2ccccc2)s1 (stereo not drawn) | -40.2%
71 | Cn1c(Cn2c(=O)sc3ccccc32)nnc1SCc1cccc(F)c1 | -11.6%
72 | Cc1c(C(=O)c2ccc(Cl)cc2Cl)cnc2cc3c(cc12)OCO3 | 10.6%
73 | CCOCCCn1c(SCC(=O)Nc2ccccc2OC)nc2ccccc2c1=O | -45%
74 | S=c1nc(C23CC4CC(CC(C4)C2)C3)nc2sccn12 | 9.55%
75 | COc1ccc2c(c1)C(=O)[C@H](O)[C@@H](c1ccc(OC)c(Br)c1)O2 | 12.9%
76 | CC(C)NC(=O)N1CCN(c2ccncc2S(=O)(=O)N2CCCCC2)CC1 | 5.19%
77 | Cc1c(Br)cnn1C(C)C(=O)N1CCN(c2ccc(F)cc2)CC1 (stereo not drawn) | -37.8%
78 | CCOC(=O)c1c(N)n(CCN2CCCCC2)c2nc3ccccc3nc12 | -25.1%
79 | CN(C)C(=O)c1nc2ccc(Cl)cn2c1CNCc1cccc(OC(F)(F)F)c1 | -26.7%
80 | CCC(C)(C)NC(=O)C(OC(=O)c1ccco1)c1ccc(OC)cc1 (stereo not drawn) | 3.2%
81 | CCCn1c2c(c(O)c(C(=O)NC)c1=O)CCCC2 | -6.66%
82 | CCn1c(Cc2ccccc2)nnc1SCC(=O)Nc1ccccc1N1CCOCC1 | -30.5%
83 | CCN(CC)c1ccc(S(=O)(=O)N2CCCCC2)cc1NC(=O)C1CCC1 | -15.3%
84 | Cc1ccccc1/C=N/Nc1nc2ccccc2[nH]1 | 12.9%
85 | CN1CCN(CCCC(=O)c2ccc(C3CCCC3)cc2)CC1.Cl.O | -50%
86 | CCCC(=O)NCCc1ccc(S(N)(=O)=O)cc1 | 1.43%
87 | Cc1cccc(NC(=O)Nc2cccc(Oc3c(F)c(F)c(F)c(F)c3F)c2)c1 | 8.83%
